Assay results from the supplement of paper PMC8728848.
The other results are listed elsewhere or left out.

Key:
Assay in all cases: glycan array binding signal (z-score within array); higher = stronger binding
Settings in all cases: glycan notation: IUPAC condensed, linker removed
[1] = molecular target: GlcNAc(b1-2)Gal(b1-3)GalNAc
Outline: (§1)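 The Consortium for Functional Glycomics database supplied 3228 glycan arrays, of which those lacking an available protein sequence were dropped. The binding signal, a within-array Z-score, was averaged across arrays of the same protein sequence and across linkers. Negative scores can be read as non-binding.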

[2] = molecular target: GlcNAc(b1-2)Man(a1-3)[GlcNAc(b1-2)Man(a1-6)]Man(b1-4)GlcNAc(b1-4)GlcNAc
Outline: as §1

[3] = molecular target: GlcNAc(b1-2)Man(a1-3)[GlcNAc(b1-2)Man(a1-6)]Man(b1-4)GlcNAc(b1-4)[Fuc(a1-6)]GlcNAc
Outline: as §1

[4] = molecular target: GlcNAc(b1-2)Man(a1-3)[GlcNAc(b1-4)][GlcNAc(b1-2)Man(a1-6)]Man(b1-4)GlcNAc(b1-4)GlcNAc
Outline: as §1

[5] = molecular target: GlcNAc(b1-2)Man(a1-3)[GlcNAc(b1-4)][GlcNAc(b1-2)Man(a1-6)]Man(b1-4)GlcNAc(b1-4)[Fuc(a1-6)]GlcNAc
Outline: as §1

[6] = molecular target: GlcNAc(b1-2)[GlcNAc(b1-4)]Man(a1-3)[GlcNAc(b1-2)Man(a1-6)]Man(b1-4)GlcNAc(b1-4)GlcNAc
Outline: as §1

[7] = molecular target: GlcNAc(b1-2)[GlcNAc(b1-4)]Man(a1-3)[GlcNAc(b1-4)][GlcNAc(b1-2)Man(a1-6)]Man(b1-4)GlcNAc(b1-4)GlcNAc
Outline: as §1

[8] = molecular target: GlcNAc(b1-2)[GlcNAc(b1-4)]Man(a1-3)[GlcNAc(b1-4)][GlcNAc(b1-2)[GlcNAc(b1-6)]Man(a1-6)]Man(b1-4)GlcNAc(b1-4)GlcNAc
Outline: as §1

[9] = molecular target: GlcNAc(b1-2)[GlcNAc(b1-4)]Man(a1-3)[GlcNAc(b1-4)][GlcNAc(b1-2)[GlcNAc(b1-6)]Man(a1-6)]Man(b1-4)GlcNAc(b1-4)[Fuc(a1-6)]GlcNAc
Outline: as §1

[10] = molecular target: GlcNAc(b1-2)[GlcNAc(b1-6)]Man(a1-6)[GlcNAc(b1-2)Man(a1-3)]Man(b1-4)GlcNAc(b1-4)GlcNAc
Outline: as §1

[11] = molecular target: GlcNAc(b1-2)[GlcNAc(b1-6)]Man(a1-6)[GlcNAc(b1-2)Man(a1-3)]Man(b1-4)GlcNAc(b1-4)[Fuc(a1-6)]GlcNAc
Outline: as §1

[12] = molecular target: GlcNAc(b1-2)[GlcNAc(b1-6)]Man(a1-6)[GlcNAc(b1-4)][GlcNAc(b1-2)Man(a1-3)]Man(b1-4)GlcNAc(b1-4)GlcNAc
Outline: as §1

GlcNAc(b1-3)Fuc = molecular target: GlcNAc(b1-3)Fuc
Outline: as §1

GlcNAc(b1-3)Gal = molecular target: GlcNAc(b1-3)Gal
Outline: as §1

[13] = molecular target: GlcNAc(b1-3)Gal(b1-3)GalNAc
Outline: as §1

GlcNAc(b1-3)Gal(b1-4)Glc = molecular target: GlcNAc(b1-3)Gal(b1-4)Glc
Outline: as §1

[14] = molecular target: GlcNAc(b1-3)Gal(b1-4)GlcNAc
Outline: as §1

[15] = molecular target: GlcNAc(b1-3)Gal(b1-4)GlcNAc(b1-2)Man(a1-3)[GlcNAc(b1-3)Gal(b1-4)GlcNAc(b1-2)Man(a1-6)]Man(b1-4)GlcNAc(b1-4)GlcNAc
Outline: as §1

[16] = molecular target: GlcNAc(b1-3)Gal(b1-4)GlcNAc(b1-2)Man(a1-3)[GlcNAc(b1-3)Gal(b1-4)GlcNAc(b1-2)Man(a1-6)]Man(b1-4)GlcNAc(b1-4)[Fuc(a1-6)]GlcNAc
Outline: as §1

[17] = molecular target: GlcNAc(b1-3)Gal(b1-4)GlcNAc(b1-2)[GlcNAc(b1-3)Gal(b1-4)GlcNAc(b1-6)]Man(a1-6)[GlcNAc(b1-3)Gal(b1-4)GlcNAc(b1-2)Man(a1-3)]Man(b1-4)GlcNAc(b1-4)GlcNAc
Outline: as §1

[18] = molecular target: GlcNAc(b1-3)Gal(b1-4)GlcNAc(b1-3)Gal(b1-4)GlcNAc
Outline: as §1

[19] = molecular target: GlcNAc(b1-3)Gal(b1-4)GlcNAc(b1-3)Gal(b1-4)GlcNAc(b1-2)Man(a1-3)[GlcNAc(b1-3)Gal(b1-4)GlcNAc(b1-3)Gal(b1-4)GlcNAc(b1-2)Man(a1-6)]Man(b1-4)GlcNAc(b1-4)GlcNAc
Outline: as §1

[20] = molecular target: GlcNAc(b1-3)Gal(b1-4)GlcNAc(b1-3)Gal(b1-4)GlcNAc(b1-2)Man(a1-3)[GlcNAc(b1-3)Gal(b1-4)GlcNAc(b1-3)Gal(b1-4)GlcNAc(b1-2)Man(a1-6)]Man(b1-4)GlcNAc(b1-4)[Fuc(a1-6)]GlcNAc
Outline: as §1

[21] = molecular target: GlcNAc(b1-3)Gal(b1-4)GlcNAc(b1-3)Gal(b1-4)GlcNAc(b1-2)[GlcNAc(b1-3)Gal(b1-4)GlcNAc(b1-3)Gal(b1-4)GlcNAc(b1-6)]Man(a1-6)[GlcNAc(b1-3)Gal(b1-4)GlcNAc(b1-3)Gal(b1-4)GlcNAc(b1-2)Man(a1-3)]Man(b1-4)GlcNAc(b1-4)[Fuc(a1-6)]GlcNAc
Outline: as §1

[22] = molecular target: GlcNAc(b1-3)Gal(b1-4)GlcNAc(b1-3)Gal(b1-4)GlcNAc(b1-3)Gal(b1-4)GlcNAc(b1-2)Man(a1-3)[GlcNAc(b1-3)Gal(b1-4)GlcNAc(b1-3)Gal(b1-4)GlcNAc(b1-3)Gal(b1-4)GlcNAc(b1-2)Man(a1-6)]Man(b1-4)GlcNAc(b1-4)GlcNAc
Outline: as §1

[23] = molecular target: GlcNAc(b1-3)Gal(b1-4)GlcNAc(b1-3)Gal(b1-4)GlcNAc(b1-3)Gal(b1-4)GlcNAc(b1-2)Man(a1-3)[GlcNAc(b1-3)Gal(b1-4)GlcNAc(b1-3)Gal(b1-4)GlcNAc(b1-3)Gal(b1-4)GlcNAc(b1-2)Man(a1-6)]Man(b1-4)GlcNAc(b1-4)[Fuc(a1-6)]GlcNAc
Outline: as §1

[24] = molecular target: GlcNAc(b1-3)Gal(b1-4)GlcNAc(b1-3)Gal(b1-4)GlcNAc(b1-3)Gal(b1-4)GlcNAc(b1-2)[GlcNAc(b1-3)Gal(b1-4)GlcNAc(b1-3)Gal(b1-4)GlcNAc(b1-3)Gal(b1-4)GlcNAc(b1-6)]Man(a1-6)[GlcNAc(b1-3)Gal(b1-4)GlcNAc(b1-3)Gal(b1-4)GlcNAc(b1-3)Gal(b1-4)GlcNAc(b1-2)Man(a1-3)]Man(b1-4)GlcNAc(b1-4)[Fuc(a1-6)]GlcNAc
Outline: as §1

[25] = molecular target: GlcNAc(b1-3)Gal(b1-4)GlcNAc(b1-3)Gal(b1-4)GlcNAc(b1-3)Gal(b1-4)GlcNAc(b1-3)Gal(b1-4)GlcNAc(b1-2)Man(a1-3)[GlcNAc(b1-3)Gal(b1-4)GlcNAc(b1-3)Gal(b1-4)GlcNAc(b1-3)Gal(b1-4)GlcNAc(b1-3)Gal(b1-4)GlcNAc(b1-2)Man(a1-6)]Man(b1-4)GlcNAc(b1-4)GlcNAc
Outline: as §1

[26] = molecular target: GlcNAc(b1-3)Gal(b1-4)GlcNAc(b1-3)Gal(b1-4)GlcNAc(b1-3)Gal(b1-4)GlcNAc(b1-3)Gal(b1-4)GlcNAc(b1-2)Man(a1-3)[GlcNAc(b1-3)Gal(b1-4)GlcNAc(b1-3)Gal(b1-4)GlcNAc(b1-3)Gal(b1-4)GlcNAc(b1-3)Gal(b1-4)GlcNAc(b1-2)Man(a1-6)]Man(b1-4)GlcNAc(b1-4)[Fuc(a1-6)]GlcNAc
Outline: as §1

[27] = molecular target: GlcNAc(b1-3)Gal(b1-4)GlcNAc(b1-3)Gal(b1-4)GlcNAc(b1-3)Gal(b1-4)GlcNAc(b1-3)Gal(b1-4)GlcNAc(b1-2)[GlcNAc(b1-3)Gal(b1-4)GlcNAc(b1-3)Gal(b1-4)GlcNAc(b1-3)Gal(b1-4)GlcNAc(b1-3)Gal(b1-4)GlcNAc(b1-6)]Man(a1-6)[GlcNAc(b1-3)Gal(b1-4)GlcNAc(b1-3)Gal(b1-4)GlcNAc(b1-3)Gal(b1-4)GlcNAc(b1-3)Gal(b1-4)GlcNAc(b1-2)Man(a1-3)]Man(b1-4)GlcNAc(b1-4)[Fuc(a1-6)]GlcNAc
Outline: as §1

[28] = molecular target: GlcNAc(b1-3)Gal(b1-4)GlcNAc(b1-3)Gal(b1-4)GlcNAc(b1-3)GalNAc
Outline: as §1

[29] = molecular target: GlcNAc(b1-3)Gal(b1-4)GlcNAc(b1-3)GalNAc
Outline: as §1

[30] = molecular target: GlcNAc(b1-3)Gal(b1-4)GlcNAc(b1-3)[GlcNAc(b1-3)Gal(b1-4)GlcNAc(b1-3)]GalNAc
Outline: as §1

[31] = molecular target: GlcNAc(b1-3)Gal(b1-4)GlcNAc(b1-6)[Gal(b1-3)]GalNAc
Outline: as §1

[32] = molecular target: GlcNAc(b1-3)Gal(b1-4)GlcNAc(b1-6)[GlcNAc(b1-3)Gal(b1-3)]GalNAc
Outline: as §1

[33] = molecular target: GlcNAc(b1-3)Gal(b1-4)GlcNAc(b1-6)[GlcNAc(b1-3)]Gal(b1-4)GlcNAc
Outline: as §1

GlcNAc(b1-3)GalNAc = molecular target: GlcNAc(b1-3)GalNAc
Outline: as §1

GlcNAc(b1-3)Man = molecular target: GlcNAc(b1-3)Man
Outline: as §1

[34] = molecular target: GlcNAc(b1-3)[GlcNAc(b1-4)][GlcNAc(b1-6)]GlcNAc
Outline: as §1

[35] = molecular target: GlcNAc(b1-3)[GlcNAc(b1-6)]Gal(b1-4)GlcNAc
Outline: as §1

[36] = molecular target: GlcNAc(b1-3)[GlcNAc(b1-6)]GalNAc
Outline: as §1

[37] = molecular target: GlcNAc(b1-4)Gal(b1-4)GlcNAc
Outline: as §1

GlcNAc(b1-4)GlcNAc = molecular target: GlcNAc(b1-4)GlcNAc
Outline: as §1

[38] = molecular target: GlcNAc(b1-4)GlcNAc(b1-4)GlcNAc
Outline: as §1

[39] = molecular target: GlcNAc(b1-4)GlcNAc(b1-4)GlcNAc(b1-4)GlcNAc(b1-4)GlcNAc
Outline: as §1

B1: SBD-G4S3-SBD (protein)
chain: MASIPSSASVQLDSYNYDGSTFSGKIYVKNIAYSKKVTVVYADGSDNWNNNGNIIAASFSGPISGSNYEYWTFSASVKGIKEFYIKYEVSGKTYYDNNNSANYQVSTGGGGSGGGGSGGGGSEFASIPSSASVQLDSYNYDGSTFSGKIYVKNIAYSKKVTVVYADGSDNWNNNGNIIAASFSGPISGSNYEYWTFSASVKGIKEFYIKYEVSGKTYYDNNNSANYQVST
glycan array binding signal (z-score) [1]: -0.379 | glycan array binding signal (z-score) [2]: -0.43 | glycan array binding signal (z-score) [3]: -0.351 | glycan array binding signal (z-score) [4]: -0.314 | glycan array binding signal (z-score) [5]: -0.413 | glycan array binding signal (z-score) [6]: -0.402 | glycan array binding signal (z-score) [7]: -0.391 | glycan array binding signal (z-score) [8]: -0.401 | glycan array binding signal (z-score) [9]: -0.39 | glycan array binding signal (z-score) [10]: -0.318 | glycan array binding signal (z-score) [11]: -0.335 | glycan array binding signal (z-score) [12]: -0.347 | glycan array binding signal (z-score) (GlcNAc(b1-3)Fuc): -0.358 | glycan array binding signal (z-score) (GlcNAc(b1-3)Gal): -0.365 | glycan array binding signal (z-score) [13]: -0.334 | glycan array binding signal (z-score) (GlcNAc(b1-3)Gal(b1-4)Glc): -0.331 | glycan array binding signal (z-score) [14]: -0.393 | glycan array binding signal (z-score) [15]: -0.366 | glycan array binding signal (z-score) [16]: -0.302 | glycan array binding signal (z-score) [17]: 2.56 | glycan array binding signal (z-score) [18]: -0.419 | glycan array binding signal (z-score) [19]: -0.203 | glycan array binding signal (z-score) [20]: -0.304 | glycan array binding signal (z-score) [21]: -0.26 | glycan array binding signal (z-score) [22]: -0.347 | glycan array binding signal (z-score) [23]: -0.264 | glycan array binding signal (z-score) [24]: -0.305 | glycan array binding signal (z-score) [25]: -0.349 | glycan array binding signal (z-score) [26]: -0.335 | glycan array binding signal (z-score) [27]: 0.027 | glycan array binding signal (z-score) [28]: -0.372 | glycan array binding signal (z-score) [29]: -0.417 | glycan array binding signal (z-score) [30]: -0.39 | glycan array binding signal (z-score) [31]: -0.393 | glycan array binding signal (z-score) [32]: -0.215 | glycan array binding signal (z-score) [33]: -0.406 | glycan array binding signal (z-score) (GlcNAc(b1-3)GalNAc): -0.407 | glycan array binding signal (z-score) (GlcNAc(b1-3)Man): -0.345 | glycan array binding signal (z-score) [34]: -0.408 | glycan array binding signal (z-score) [35]: -0.402 | glycan array binding signal (z-score) [36]: -0.362 | glycan array binding signal (z-score) [37]: -0.366 | glycan array binding signal (z-score) (GlcNAc(b1-4)GlcNAc): -0.332 | glycan array binding signal (z-score) [38]: -0.367 | glycan array binding signal (z-score) [39]: -0.371
